Experimental data published in the RNAGym collection of RNA variant scans (doi:10.1101/gad.245936.114).
This sample is rich in variants without activity.

B1: tRNA (parent)
chain: CUCUCGGUAGCCAAGUUGGUUUAAGGCGCAAGACUUUAAUUUAUCACUACGAAAUCUUGAGAUCGGGCGUUCGACUCGCCCCCGGGAGAUUUUUUCCUCGAGCAA

Variants of: B1
Experiment: nonsense suppression (GFP-seq) (ratio to wild type); higher = more function; SUP4oc tRNA, yeast GFP reporter sort-seq
Method in brief: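 To measure nonsense suppression, tRNA variants from a library carrying ~3% random mutations were integrated into the yeast genome alongside RFP and a GFP ochre reporter under galactose control. Growth took place in raffinose/galactose medium supplemented with 80 mg/L adenine, followed by sorting into GFP/RFP bins and Illumina sequencing of each bin (phred ≥30). For each variant with ≥100 reads and ≥30 cells, the bin median GFP/RFP values were weighted by its estimated cell share per bin and referenced to the unmutated parent tRNA.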

| Variant | nonsense suppression |
| --- | --- |
| CUCUCGGUAGCCAAGUUGGUUUAAGGCGCAAGACUUUAAUUUAUCACUACGAAAACUUGAGAUCGGGCGUACGACUCGCCCCCGGGUGAUUUUUUCCUCGAGCAA | ≤ 0.026 |
| CUCUCGGUAGCCAAGUUGGUUUAAGGCGCAAGACUUUAAUUUAUCACUACGAAACCUUGAGAUCGGGCGUUCGACUCGGCCCCGGGAGAUUUUUUCCUCGAGCAA | 0.035 |
| CUCUCGGUAGCCAAGUUGGUUUAAGGCGCAAGACUUUAAUUUAUCACUACGAAACGUCGAGAUCGGGCGUUCGACUCGCCCCCGGGAGAUUUUUUCCUCGAGCAA | ≤ 0.026 |
| CUCUCGGUAGCCAAGUUGGUUUAAGGCGCAAGACUUUAAUUUAUCACUACGAAACCUUGAGAUCGGGCGUUCGCCUCGCCCCCGGGAGAUUUUUUCCUCGAGCAA | ≤ 0.026 |
| CUCUCGGUAGCCAAGUUGGUUUAAGGCGCAAGACUUUAAUUUAUCACUACGAAACCUUGAGAUCCGGCGUUCGACUCGCCCCCGGGAGAUUUUUUCCUCGAGCAA | ≤ 0.026 |
| CUCUCGGUAGCCAAGUUGGUUUAAGGCGCAAGACUUUAAUUUAUCACUACGAAACCUUGAGAUCGGGCGUUCGACUCGCCCCGGGGAGAUUUUUUCCUCGAGCAA | 0.0314 |
| CUCUCGGUAGCCAAGUUGGUUUAAGGCGCAAGACUUUAAUUUAUCACUACGAAAACGUGAGAUCGGGCGUUAGACUCCCCCCCGGGAGAUUUUUUCCUCGAGCAA | ≤ 0.026 |
| CUCUCGGUAGCCAAGUUGGUUUAAGGCGCAAGACUUUAAUUUAUCACUACGAAACCUUGGGAUCGGGCGUUCGACUAGCCCCUGGGAGAUUUUUUCCUCGAGCAA | ≤ 0.026 |
| CUCUCGGUAGCCAAGUUGGUUUAAGGCGCAAGACUUUAAUUUAUCACUACGAAACCUUGAGAUCGAGCGUUCGACUCGCCCCCCCGAGAUUUUUUCCUCGAGCAA | ≤ 0.026 |
| CUCUCGGUAGCCAAGUUGGUUUAAGGCGCAAGACUUUAAUUUAUCACUACGAAAACUGGAGAUCGGGGGUUCGACUCGCCCCCGGGAGAUUUUUUCCUCGAGCAA | ≤ 0.026 |
| CUCUCGGUAGCCAAGUUGGUUUAAGGCGCAAGACUUUAAUUUAUCACUACGAAAACCUGAGAUCGCGCGUUCGUCUCGCCCCCGGGAGAUUUUUUCCUCGAGCAA | ≤ 0.026 |
| CUCUCGGUAGCCAAGUUGGUUUAAGGCGCAAGACUUUAAUUUAUCACUACGAAACCUUGAGAUCGGGCGUUCGACUAGCCCCCGGGAGAUUUUUUCCUCGAGCAA | 0.0479 |
| CUCUCGGUAGCCAAGUUGGUUUAAGGCGCAAGACUUUAAUUUAUCACUACGAAACCUUGAGAUCGGGCGUUCGACUCGCUCCCGGGAGAUUUUUUCCUCGAGCAA | ≤ 0.026 |
| CUCUCGGUAGCCAAGUUGGUUUAAGGCGCAAGACUUUAAUUUAUCACUACGAAAACUAGAGAUCGGGCGUUCGACUCGCCCCCGGGAGAUUUUUUCCUCGAGCAA | ≤ 0.026 |
| CUCUCGGUAGCCAAGUUGGUUUAAGGCGCAAGACUUUAAUUUAUCACUACGAAACCUUGAGAUCGAGCGUUCGACUCGCCCCCGGGAGAUUUUUUCCUCGAGCAA | 0.0631 |
| CUCUCGGUAGCCAAGUUGGUUUAAGGCGCAAGACUUUAAUUUAUCACUACGAAACCUUGAGAUCGGGCGUUCGAAUCGCCCCCGGGAGAUUUUUUCCUCGAGCAA | 1.05 |
| CUCUCGGUAGCCAAGUUGGUUUAAGGCGCAAGACUUUAAUUUAUCACUACGAAACCUUGAGAUCGGGCGUUCGACUCGCCUCCGGGAGAUUUUUUCCUCGAGCAA | ≤ 0.026 |
| CUCUCGGUAGCCAAGUUGGUUUAAGGCGCAAGACUUUAAUUUAUCACUACGAAACCUUGAGAUCGGGCGUUCGACUCGCCACCGGGAGAUUUUUUCCUCGAGCAA | ≤ 0.026 |
| CUCUCGGUAGCCAAGUUGGUUUAAGGCGCAAGACUUUAAUUUAUCACUACGAAACAUUGAGAUCGGGCGUUCGACUCGCCCCCGGGAGAUUUUUUCCUCGAGCAA | ≤ 0.026 |
| CUCUCGGUAGCCAAGUUGGUUUAAGGCGCAAGACUUUAAUUUAUCACUACGAAACCUUGAGAUCGGGCGUUUGACUCGCCCCCGGGAGAUUUUUUCCUCGAGCAA | ≤ 0.026 |
| CUCUCGGUAGCCAAGUUGGUUUAAGGCGCAAGACUUUAAUUUAUCACUACGAAACCUUGAAAUCGGGCGUUCGACUCGCCCCCGGGAGAUUUUUUCCUCGAGCAA | 0.194 |
| CUCUCGGUAGCCAAGUUGGUUUAAGGCGCAAGACUUUAAUUUAUCACUACGAAACCUUGAGAUCGGGGGUUCGACUCGCCCCCGGGAGAUUUUUUCCUCGAGCAA | ≤ 0.026 |
| CUCUCGGUAGCCAAGUUGGUUUAAGGCGCAAGACUUUAAUUUAUCACUACGAAACCUUGAGAUCGGGCGUUCGACUUUCCCCCGGGAGAUUUUUUCCUCGAGCAA | ≤ 0.026 |
| CUCUCGGUAGCCAAGUUGGUUUAAGGCGCAAGACUUUAAUUUAUCACUACGAAACCUUCAGAUCGGGCGUUCGACUCGCCCCCGGGAGAUUUUUUCCUCGAGCAA | ≤ 0.026 |
| CUCUCGGUAGCCAAGUUGGUUUAAGGCGCAAGACUUUAAUUUAUCACUACGAAACCUUAAGAUCGGGCGUUCGACUCGCCCCCGGGAGAUUUUUUCCUCGAGCAA | ≤ 0.026 |
| CUCUCGGUAGCCAAGUUGGUUUAAGGCGCAAGACUUUAAUUUAUCACUACGAAACCUUGAGAUCAGGCGUUCGACUCGCCCCCGGGAGCUUUUUUCCUCGAGCAA | ≤ 0.026 |
| CUCUCGGUAGCCAAGUUGGUUUAAGGCGCAAGACUUUAAUUUAUCACUACGAAACCUUGUGAUCGGGCUUUCGACUCGCCCCCGGGAGAUUUUUUCCUCGAGCAA | ≤ 0.026 |
